# Out of some 310,000 compounds screened, about 2,200 (0.71%) showed an effect of 50% or more. The effect is printed as a negative number. Some of the results follow. Where a SMILES comes first, the peptide text is derived from it. [ ]: non-standard residue; d: D form. pGlu = O=C1CC[CH](C(=O)O)N1
# Target: human ether-à-go-go-related gene (hERG) potassium channel (human, UniProt Q12809)
# Test: primary screen, population patch clamp on CHO cells stably expressing hERG
# human ether-à-go-go-related gene (hERG) potassium channel, sequence (Q12809 whole entry, looked up): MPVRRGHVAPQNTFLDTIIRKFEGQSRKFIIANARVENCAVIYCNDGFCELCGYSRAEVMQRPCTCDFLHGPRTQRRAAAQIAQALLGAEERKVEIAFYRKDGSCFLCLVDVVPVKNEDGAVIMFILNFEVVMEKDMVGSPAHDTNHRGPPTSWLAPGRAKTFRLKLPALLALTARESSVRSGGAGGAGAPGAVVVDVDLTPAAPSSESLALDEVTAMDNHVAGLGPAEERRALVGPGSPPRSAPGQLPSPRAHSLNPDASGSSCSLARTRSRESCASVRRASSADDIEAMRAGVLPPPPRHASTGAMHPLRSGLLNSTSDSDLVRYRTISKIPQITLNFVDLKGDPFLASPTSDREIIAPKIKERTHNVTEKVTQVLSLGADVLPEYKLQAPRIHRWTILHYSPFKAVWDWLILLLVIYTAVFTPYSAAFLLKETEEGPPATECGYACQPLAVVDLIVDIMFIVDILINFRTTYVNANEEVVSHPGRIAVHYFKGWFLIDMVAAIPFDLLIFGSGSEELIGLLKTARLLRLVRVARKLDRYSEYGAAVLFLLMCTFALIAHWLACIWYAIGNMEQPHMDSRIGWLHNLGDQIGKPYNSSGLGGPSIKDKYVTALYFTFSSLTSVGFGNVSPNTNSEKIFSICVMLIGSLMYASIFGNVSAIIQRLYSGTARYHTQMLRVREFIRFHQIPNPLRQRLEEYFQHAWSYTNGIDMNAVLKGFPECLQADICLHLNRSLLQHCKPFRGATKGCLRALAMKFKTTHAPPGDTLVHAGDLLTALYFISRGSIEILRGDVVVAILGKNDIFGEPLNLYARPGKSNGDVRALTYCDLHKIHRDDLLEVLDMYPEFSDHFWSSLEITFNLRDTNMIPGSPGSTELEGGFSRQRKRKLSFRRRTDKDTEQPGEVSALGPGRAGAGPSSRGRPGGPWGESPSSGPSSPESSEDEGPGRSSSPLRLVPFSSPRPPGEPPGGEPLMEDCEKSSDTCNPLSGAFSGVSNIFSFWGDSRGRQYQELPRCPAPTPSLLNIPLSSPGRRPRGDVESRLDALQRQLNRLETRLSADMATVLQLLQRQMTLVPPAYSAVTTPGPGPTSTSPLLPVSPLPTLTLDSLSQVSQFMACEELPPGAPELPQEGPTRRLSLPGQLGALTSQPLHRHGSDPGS
row,SMILES,"hERG current change (%, negative = inhibition) at 1uM [%]"
1,COc1ccc(CCC(C)N2CCOCC2)cc1 (stereo not drawn),5.6
2,CC(=Nc1ccc(F)cc1)c1c(O)n(C)c(=O)[nH]c1=O,17
3,Cc1ccc(C)c(S(=O)(=O)N2CCNCC2)c1,7.02
4,O=C(O)C1CC=CCC1C(=O)Nc1ccc(S(=O)(=O)N2CCCc3ccccc32)cc1 (stereo not drawn),6.18
5,O=C(COc1ccccc1)N1CCN(c2ccc([N+](=O)[O-])c(N3CCCCC3)c2)CC1,10.7
6,CCOC(=O)c1c(C)[nH]c(C)c1-c1ccccc1OC,5.44
7,CCOC(=O)N1CCC(NS(=O)(=O)c2ccc(C#N)cc2)CC1,10.2
8,Cc1ccc(NC(=O)CCC(=O)c2ccc(Br)cc2)cc1,10.9
9,CC(C)(C)NS(=O)(=O)c1cccc(S(=O)(=O)c2cccc(S(=O)(=O)NC(C)(C)C)c2)c1,-8.48
10,COc1cc(CN(C)Cc2cccc3ccccc23)cc([N+](=O)[O-])c1O,12.5
11,O=C(COc1cccc(Br)c1)N/N=C1\CCSC1,6.12
12,Nn1c(-c2ccccc2)nc2ccccc2c1=O,7.79
13,Cc1ccc(OCC(=O)Nn2cnc3ccccc32)cc1,2.55
14,O=C(Cc1csc(N2CCOCC2)n1)N/N=C/c1ccc(F)cc1,3.97
15,Cn1nc(CC(=O)N2CCN(c3ccccc3)CC2)c2ccccc2c1=O,-5.42
16,CCn1c(SCC(=O)c2cc(OC)ccc2OC)nnc1-c1ccncc1,7
17,COc1cccc(C(=O)CC(=O)C(=O)Nc2cc(Cl)c(OC)cc2OC)c1,11.7
18,CN(C)c1ccc(-c2noc(-c3ccccc3O)n2)cc1,3.12
19,C[C@H](NC(N)=O)C(=O)OCC(=O)Nc1ccc(OC(F)F)cc1,-1.05
20,O=C(CCn1nnc2ccccc21)NNC(=O)C1CCCCC1,18.3
21,CCn1c(SCc2nc(-c3ccc(OC)c(OC)c3)no2)nnc1-c1cccs1,-1.52
22,O=C(c1cccc(S(=O)(=O)N2CCOCC2)c1)N1CCN(S(=O)(=O)c2cccs2)CC1,9.64
23,O=C(OCC(=O)N1CCOCC1)c1cnc(Cl)c(Cl)c1,-0.0536

row,SMILES,"hERG current change (%, negative = inhibition) at 1uM [%]"
1,Cc1onc(-c2ccccc2Cl)c1C(=O)OCc1cnc(Cl)s1,15.1
2,NC(=S)N/N=C/c1cccc(O)c1O,22.9
3,COC(=O)c1sc(SC)c2c1CC(C)(C)C/C2=N/O,13.4
4,COC(=O)Cn1c2c(c3cc(C)ccc31)CCCC2,6.1
5,CC(=O)C1=C(C)NC(SCC(N)=O)=C(C#N)C1c1sccc1C (stereo not drawn),12.4
6,CCCCn1c(N)c(N(CC)C(=O)c2cccc(S(=O)(=O)N3CCCc4ccccc43)c2)c(=O)[nH]c1=O,7.74
7,CCOc1cc(/C=C2/C(=O)N(c3ccccc3)N=C2C)ccc1OC(=O)c1cccs1,7.49
8,Cc1cc(CN(C)C(=O)CC2C(=O)NCCN2CC(c2ccccc2)c2ccccc2)on1 (stereo not drawn),10.5
9,O=C(CSc1nncs1)N1CCN(C(=O)c2ccco2)CC1,10
10,CC(=O)Nc1ccc(NC(=O)c2ccc(Cl)nc2)cc1,6.35
11,Cc1ccc(N2CC(C(=O)Nc3c4c(nn3C(C)(C)C)CS(=O)(=O)C4)CC2=O)cc1C (stereo not drawn),2.17
12,CC(NC(=O)CSc1ncnc2nc[nH]c12)c1ccccc1 (stereo not drawn),15.7
13,Cc1oc(C(C)(C)C)cc1C(=O)N1CCN(c2ccc(C(F)(F)F)cn2)CC1,9.49
14,COc1ccc(/C=C/C(=O)c2cc(Br)ccc2OC(=O)c2ccco2)cc1OC,12.6
15,CN(C)C(=O)COC(=O)/C=C/c1ccccc1[N+](=O)[O-],20.6
16,COc1ccc(CCNC(=O)c2cccc(S(=O)(=O)N3CCCCC3)c2)cc1,-5.48
17,CC(=O)OC(C(=O)NCS(=O)(=O)c1ccc(C)cc1)c1cccnc1 (stereo not drawn),14.3
18,N#Cc1c(N)nc2c(c1-c1ccc(F)cc1)c(=O)nc1sccn12,21.9
19,COc1ccc(S(=O)(=O)N2CCC(C(=O)NCCC(=O)NCc3ccccc3OC)CC2)cc1,9.8
20,CC(C)Oc1cccc(C(=O)Nc2ccc(NC(=O)c3ccco3)cc2)c1,13.5
21,Cc1ccccc1NC(=S)N1CCCN(Cc2ccc(F)cc2)C1,8.61
22,O=C(c1cccc(C(=O)N2CCN(c3ccc(F)cc3)CC2)c1)N1CCN(c2ccc(F)cc2)CC1,-22.7
23,O=C(Nn1c(O)c(C=C2N=c3ccccc3=N2)sc1=S)c1ccc(Cl)cc1,7.35

row,SMILES,"hERG current change (%, negative = inhibition) at 1uM [%]"
1,O=C(O)c1cccc(S(=O)(=O)Nc2cccc3ccccc23)c1,7.52
2,COc1cc2nc(CSc3nc(-c4ccc(F)cc4)cs3)[nH]c(=O)c2cc1OC,12.9
3,CC(C)(C)P(=O)(N1CCOCC1)N1CCOCC1,8.69
4,CN(C)c1nc(-c2cccnc2)nc(-c2ccccc2)c1C#N,9.9
5,CCOc1ccc(CN(C(=O)c2cc3ccccc3oc2=O)C2CCS(=O)(=O)C2)cc1 (stereo not drawn),0.919
6,OCCC1CN(Cc2ccon2)CCN1Cc1ccc(F)c(F)c1 (stereo not drawn),3.9
7,COc1ccccc1NC(=O)C(NC(=O)c1ccc(C)cc1)c1ccccc1 (stereo not drawn),15.4
8,CCOc1cccc(N(C(=O)Cc2cccs2)C(C(=O)NC2CCCCC2)c2cccn2C)c1 (stereo not drawn),10.6
9,CC(=O)N1CCN(C(=S)NC(=O)c2ccc(S(=O)(=O)N3CCOCC3)cc2)CC1,13.2
10,Cc1ccc(Sc2ncccc2[N+](=O)[O-])cc1,5.68
11,COc1ccc(N(C(=O)c2cccnc2)S(=O)(=O)c2ccc(F)cc2)cc1,0.97
12,O=C(CN(Cc1ccco1)C(=O)CNS(=O)(=O)c1ccc(Cl)cc1)NCc1ccco1,-22.6
13,Cn1cnc2cc(NS(=O)(=O)c3ccc(Br)cc3)ccc21,11.1
14,Cc1cccc(C)c1NC(=O)c1sccc1SCC#N,-4.91
15,Cc1csc(-c2cccnc2)n1,11.2
16,Cc1cc(C(=O)N/N=C/c2ccc([N+](=O)[O-])o2)c(C)o1,12.4
17,Cc1ccc(S(=O)(=O)NCc2ccccc2)cc1C(=O)NCC1CCCO1 (stereo not drawn),12.8
18,CCCCCN(C(=O)CCC(=O)OCC(=O)NC1CCC(C)CC1)c1c(N)n(CCCC)c(=O)[nH]c1=O (stereo not drawn),16.2
19,CNC(=O)C(C#N)(Cc1cc(C(C)=O)ccc1OC)Cc1cc(C(C)=O)ccc1OC,14
20,C(=N\Nc1ncnc2sc3c(c12)CCC3)/c1cccs1,6.66
21,COc1ccc(C(C#N)N2CCOCC2)cc1 (stereo not drawn),5.38
22,COCCNC(=O)/C(C#N)=C/c1nc(N(C)C)n(-c2ccc(F)cc2)c1Cl,10.3
23,Cc1ccc(N(C)S(=O)(=O)c2cc3c(cc2C)NC(=O)CO3)cc1,2.17

row,SMILES,"hERG current change (%, negative = inhibition) at 1uM [%]"
1,Cc1ccn2c(-c3n[nH]c(=S)n3C)c(C)nc2c1,10.3
2,Clc1ccccc1C1=NCc2nncn2-c2sc(Br)cc21,12.5
3,O=C(Nc1cccc(O)c1)C1CC(c2c(F)cccc2Cl)=NO1 (stereo not drawn),-17.6
4,Cc1cc(Br)cc2c(C(=O)NCC3CCCO3)cc(-c3cccs3)nc12 (stereo not drawn),15.3
5,CC(C)c1ccc2oc(=O)cc(CN3CCN(c4ccccc4)CC3)c2c1,-1.41
6,Cc1ccc(Cl)cc1NC(=O)CCC(=O)O,13
7,Cc1cc(C(=O)N/N=C/c2ccc(-c3cccc(Br)c3)o2)n[nH]1,16.2
8,S=c1[nH]nc(COc2ccccc2)n1/N=C/C=C/c1ccccc1,4.59
9,CNC(=O)c1[nH]nc2c1CCc1cc(OC)ccc1-2,11.1
10,CCCCOc1ccc(C(=O)NCC(=O)NCCOc2ccccc2)cc1,0.973
11,O=C(CC(=O)NC1CCCCC1)N/N=C/c1ccccc1Cl,15.4
12,Cc1cccc(Nc2nc(N)c(C#N)c(CC#N)c2C#N)c1,8.1
13,CCn1c(SCC(=O)c2ccc(Cl)s2)nnc1-c1cccs1,3.68
14,CC1(C)CC2CC(C)(CN2c2ncnc3ccc(Br)cc23)C1 (stereo not drawn),8.62
15,CCOc1cc(/C=N/NC(N)=O)cc(Br)c1OCC(=O)Nc1ccccc1C,8.57
16,Cc1cnc([N+](=O)[O-])n1CCOC(=O)NC(=O)c1ccc(F)cc1,1.2
17,COCCn1nnnc1CN1CCC(C)CC1,3.23
18,CC(=O)n1cc(/C=N/NC(=O)c2ccccc2Cl)c2ccccc21,12.9
19,O=S(=O)(c1ccc(Cl)cc1)N1CCN(Cc2cccnc2)CC1,-2.19
20,CCNC(=O)C(CC(C)C)NC(=O)C(CO)NC(=O)C1CCC(=O)N1 (stereo not drawn) ([pGlu]-Ser-Leu-NHEt; configuration not given here),13.7
21,CN1C(=O)NC(=O)[C@]2(Cc3ccccc3N3CCN(c4ccccc4)CC32)C1=O (stereo partly drawn),8.88

# — article PMC4336329 (PLoS ONE, 2015)
